# Test results as given in the RNAGym collection of RNA variant scans (doi:10.7554/elife.90254).
# The source gives no read counts; variants with many changes may rest on few reads.
# B1: LINE1-mini (parent)
# chain: GGCAGAGCUCAACACAGCGUGGCAAAGUGGCUGUGGCUAGACUGCC
# Variants of: B1
# Assay: self-cleavage, relative activity (ratio to wild type); higher = more cleavage; in vitro, sequencing; the parent is a self-cleaving ribozyme
row,Variant,self-cleavage
1,GGCAGAGCUCCACACAGCGUCGGAAAGUGGCUGUGGCUAGCCUGCC [A11C G21C C23G A41C],0
2,GCCAGAGCUGAACACAGCGUGGCCAUCUGGCUGUGGCUAGACUGCC [G2C C10G A24C A26U G27C],0.01
3,GGCAGAGCUCAACACGGCGUGGAAAAGUGGGUGUGGUUAGACCGCC [A16G C23A C31G C37U U43C],0
4,GGCACAGCCCCUCACAGCGUGGCAAAGUGGCUGUGGCUAGACUGCC [G5C U9C A11C A12U],0.05
5,GGCAGAGCUCAACACAGCCUGGCAAAGUGGCUGUGGCAAAACUGCC [G19C U38A G40A],0
6,GACAGAGCUCAACACAGCGUGGCAAAAAGGCUGUGUCUAGACUGCC [G2A G27A U28A G36U],0.21
7,GGCUGAGCUCAACUCAGCGUGGGAAAGCGGCUGUGGCUAGAACGCC [A4U A14U C23G U28C C42A U43C],0.09
8,GGUAGAGUUCAACACAGUGUGGCACAUUGGCUGUGGCUAGACUGCC [C3U C8U C18U A25C G27U],0.33
9,GGGGGAGCUCAAAACAGCGUGGCAAAGUUGCUCUGGCUAGACUGCC [C3G A4G C13A G29U G33C],0.08
10,GGCAGAGAUCAACACAGCGUGGAAAAGUGGCUGUGGCUAGACUGUC [C8A C23A C45U],0.22
11,GUCAGAGCUCAACACAGCGUGACAACGGGGCUGCGGCUAUACUGCC [G2U G22A A26C U28G U34C G40U],0.01
12,GGCAGAGCUCAAAACAGCGUGGCAAAGUGGUUGUGGCUAGAAUGCC [C13A C31U C42A],0.03
13,GGCAGAGCUCAACACCGCGCGACAAUAUGUCUGUGGCUAGACUGCC [A16C U20C G22A A26U G27A G30U],0.05
14,GACAGCGCUCAACACAGCGUGGCAAACUGGCUUGAGCUAGACUGCC [G2A A6C G27C G33U U34G G35A],0.06
15,GUCAGAGCUUAACACAGCGUGGCAAAGUGACUGUGGCUAGACUGCA [G2U C10U G30A C46A],0.01
16,GGCAGAACUCAACACAUCGUUGCAAAGUGGGUGUGGCUAGACUGCC [G7A G17U G21U C31G],0.06
17,GGCAGAGCUCACCUCAGCGUGGUAAAGUGGCUGUGGCCAGACUGCC [A12C A14U C23U U38C],0.02
18,GGCAGAGCUCAACACAGCGUGGCAAAGUGGCUGUAUCUAGAUUGCC [G35A G36U C42U],0.29
19,GGCAGCGCCCAACUAAGCGUGGCAAAGUGGUUGUGCCUAGACUGCC [A6C U9C A14U C15A C31U G36C],0.02

row,Variant,self-cleavage
1,GGCAGUGCUCAACACAGCGUGGCAAAGUGGCUGUUGCUAGAUUGCC [A6U G35U C42U],0.38
2,GGCAGAGCUCAACACAGCGUGUCAAAGUGGCUGUGGCUAGGAGGCC [G22U A41G C42A U43G],0.02
3,GGCACAGCUGAACACAGCGUGGCAAAAUGUCUGUGGCUAGAUUUCC [G5C C10G G27A G30U C42U G44U],0
4,GGCGCAGCUCAACACAGCGCGGCAAAGUGGCUGUGGCUAGACUGCC [A4G G5C U20C],0.04
5,GGCAGAUCUGAACACAGCGUGGCAACGUGGCUGUGGCUAGACUGCC [G7U C10G A26C],0.01
6,GGCAGAGCUCAACACAGCGAGGCAACGUGGCUGUGGCCGGAGUGCC [U20A A26C U38C A39G C42G],0.07
7,UGCAGAGCUCAACACCACGUGGCAAAGUGGCUGUGGCUACACUGCC [G1U A16C G17A G40C],0.04
8,GACAGACCUCAACGCACCGUGGCAAAGUGGCUGUGGCUAGAAAGCC [G2A G7C A14G G17C C42A U43A],0.78
9,GGCCGGGCUCAACUCAGCGUGGCAAAGUGGCUGUGGCUAGACUGCC [A4C A6G A14U],0.03
10,GGCAGAGCUCUACACAGCAUGGCAAAGAGGCUGUGGCUAGACUGCC [A11U G19A U28A],0.03
11,GGCAGAGCUUAACACAGCGUGGUGAAGUCGCAGUGGCUAGACUGCC [C10U C23U A24G G29C U32A],0.38
12,GGCAAAGCUCAACACAGCGUGGCCAAUUGGCUGUGGCUAGACUGCC [G5A A24C G27U],0.15
13,GGCAGAGGUGAACACAGCGUAGGAUAGUGGAGGUGGCUAGACUGCC [C8G C10G G21A C23G A25U C31A U32G],0.02
14,GGCAGAGCUCAACACAGCGUGGCACAGUGUCUCUGGCUAGACUGAC [A25C G30U G33C C45A],0.03
15,GGCAGAGCGCAACACAGCGUGGCAAAGUGGCUGUGGAGAGACUGCC [U9G C37A U38G],0.03
16,GGCAGUCCUCCACACAGCGUGGCAAACUGGCUGUGGCUAGACUGCC [A6U G7C A11C G27C],0.01
17,GGCAUAGCUCAACACAGCGUGGCAAGGUGGCUGUGGCUAGACUGCU [G5U A26G C46U],0.08
18,GGCAGAGCUCAACACAGCGUGGCAAAGUUGCUGUAUCUAUACUGCC [G29U G35A G36U G40U],0.55
19,GGCAGAGCUCAACAAAGCGUGGCAAAAUGGCUGUCACUAGACUGCC [C15A G27A G35C G36A],0.02

row,Variant,self-cleavage
1,GGCAGAGCUCAACACAGCGGGCCAAAGUGGCUGUGGCUAGACUGAC [U20G G22C C45A],0.11
2,GGUUGAGCUCAACACCGCGUGGCAAAGUGGCUAUAGCUAGACUGCC [C3U A4U A16C G33A G35A],0.03
3,AGCAGAGCUCAACACACCAUGGCAAAGUCGCUGUGGCUAGACUGCC [G1A G17C G19A G29C],0.1
4,GGCAGAGCUCAGCACACCAUGGCAAAGUGGCGGUAGCUAGACUGCC [A12G G17C G19A U32G G35A],0.01
5,GGCAGAACUCAACACAGCGUGGCAAAGUGGUUUUGGCUAGACUGCC [G7A C31U G33U],0.14
6,GGCAGCGCUCAACACAGCGUUGCAAAGUGGGUGUGGGUAGACUGCC [A6C G21U C31G C37G],0.02
7,GGCGAAGCUCAACACAGUGUGGCAAAGUGGCUGUGGCUAGACUGCC [A4G G5A C18U],0.03
8,GGUGGAGCUCAACACAGCGUGGCAAAGUGGCUGUGGCUAGUCUGCC [C3U A4G A41U],0.17
9,GGCAGAGCUCUACACAGAGUGGCAAAGUGGCUUUGGAUAGACUGCC [A11U C18A G33U C37A],0.02
10,GGCAGAGCUAAACACAGCGUGGCAAAGUGGCUGUAGCUAGACUUCC [C10A G35A G44U],0.03
11,UGCAGAGGUCCACACAGCGUGGCAAAGUGGCUGUGGCUAGACUGCC [G1U C8G A11C],0.01
12,GGCAGAGCUCAACGCAGCGUGGCAAAGUGGCUGAGGCUACACUGCC [A14G U34A G40C],0.01
13,GGCAGAGCUCAACUGAGUGUGGCAAAGUGGUUGUGGCUAGACUGCC [A14U C15G C18U C31U],0.03
14,CGCAGAGCUCAACACAGCGUGGCAAAGUGGCAAUGGCUAGACUGCC [G1C U32A G33A],0.01
15,GGCAGAGCUCAACACAGCGUGGAAAAGCCGCUGUGGCUAGACUCCC [C23A U28C G29C G44C],0.03
16,GGCAGGGCUCAACAUAGCGUGACACAGUGGCUGUUGCUAGACUGCC [A6G C15U G22A A25C G35U],0.03
17,CGCAGAGGUCAACUCAGCUUGGCAAAGUGGCUGUGGCUAGACUGGC [G1C C8G A14U G19U C45G],0.01
18,GGGAGAGCUCAACACAGCGUGUCAAAGUGUCUGUGGCUCGACUGCC [C3G G22U G30U A39C],0.05
